Reference: paper PMC4336329 (PLoS ONE, 2015)
The campaign covered roughly 310,000 compounds. About 2,200 (0.71%) showed an effect of 50% or more. Effects have a minus sign here. Some of the results follow.

Each molecule was assayed against human ether-à-go-go-related gene (hERG) potassium channel (human, UniProt Q12809) (assay: primary screen, population patch clamp on CHO cells stably expressing hERG).
Chain of human ether-à-go-go-related gene (hERG) potassium channel (Q12809 whole entry, looked up): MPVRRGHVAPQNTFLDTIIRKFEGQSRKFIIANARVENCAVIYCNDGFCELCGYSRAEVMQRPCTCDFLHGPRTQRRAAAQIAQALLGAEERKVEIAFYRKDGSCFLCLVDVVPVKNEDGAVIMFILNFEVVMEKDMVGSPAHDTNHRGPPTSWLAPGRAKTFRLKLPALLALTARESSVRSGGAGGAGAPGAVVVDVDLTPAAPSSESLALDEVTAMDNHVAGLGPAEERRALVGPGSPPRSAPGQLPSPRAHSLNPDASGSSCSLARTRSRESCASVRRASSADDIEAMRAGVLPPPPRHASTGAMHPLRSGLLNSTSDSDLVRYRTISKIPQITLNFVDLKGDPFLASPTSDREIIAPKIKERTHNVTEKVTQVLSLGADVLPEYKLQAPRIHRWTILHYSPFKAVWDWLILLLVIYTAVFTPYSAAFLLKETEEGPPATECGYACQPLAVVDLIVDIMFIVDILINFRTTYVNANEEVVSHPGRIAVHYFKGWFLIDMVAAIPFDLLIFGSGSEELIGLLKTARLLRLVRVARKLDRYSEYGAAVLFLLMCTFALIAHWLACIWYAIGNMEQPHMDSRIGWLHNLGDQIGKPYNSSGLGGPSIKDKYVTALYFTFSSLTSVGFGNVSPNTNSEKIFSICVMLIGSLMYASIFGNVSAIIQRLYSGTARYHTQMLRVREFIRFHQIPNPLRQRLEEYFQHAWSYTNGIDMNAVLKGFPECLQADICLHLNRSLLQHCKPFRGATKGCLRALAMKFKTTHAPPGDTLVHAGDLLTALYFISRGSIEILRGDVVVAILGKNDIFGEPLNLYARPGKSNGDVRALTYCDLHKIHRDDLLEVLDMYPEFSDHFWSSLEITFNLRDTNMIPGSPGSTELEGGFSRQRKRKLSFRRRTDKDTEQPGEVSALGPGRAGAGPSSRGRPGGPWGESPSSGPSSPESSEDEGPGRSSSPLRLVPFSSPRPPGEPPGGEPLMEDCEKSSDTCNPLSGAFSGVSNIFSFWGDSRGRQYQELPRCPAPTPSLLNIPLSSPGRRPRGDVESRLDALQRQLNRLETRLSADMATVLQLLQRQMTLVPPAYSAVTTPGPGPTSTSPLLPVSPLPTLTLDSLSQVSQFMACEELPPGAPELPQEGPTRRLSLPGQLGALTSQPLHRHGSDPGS

SMILES | hERG current change (%, negative = inhibition) at 1uM
COc1cc2c(cc1OC)CN(CC(=O)Nc1ccc(C#N)cc1)CC2 | -4.43%
N#C/C(=C\c1cccnc1)C(=O)Nc1cccc2ccccc12 | 6.28%
CC(=O)c1ccc(NC(=O)c2ccc(CSc3ccccc3)o2)cc1 | 9.33%
O=C(NCCc1ccncc1)Nc1ccc(F)cc1 | 14.1%
O=C(CSc1nc(Cc2ccccc2)nc2ccccc12)Nc1ccc2c(c1)OCCO2 | -0.608%
CCCc1nc2c(c(=O)c3ccccc3n2C)c(=O)n1C1CCCCCC1 | 13.1%
CCn1ncc(Br)c1C(=O)Nc1ccn(C23CC4CC(CC(C4)C2)C3)n1 | 16.4%
COc1cc(Cl)c(S(=O)(=O)N2CC(C)OC(C)C2)cc1Cl (centres unmarked) | 11.1%
O=C(OCC(=O)C12CC3CC(CC(C3)C1)C2)c1ccccn1 | -6.29%
Cc1ccc2nc(C)cc(C(=O)OCC(=O)Nc3c(C)n(C)n(-c4ccccc4)c3=O)c2c1 | 5.32%
Cc1nc(C)c(C(=O)Nc2cccc(Cl)c2)o1 | -7.49%
OCCN1CCN(C(=S)c2ccc(Cl)c(Cl)c2)CC1 | 3.47%
COc1cc(/C=N/NC(=O)CNC(=O)c2ccncc2)ccc1O | 4.05%
CCOC(=O)c1ccccc1NC(=O)CSc1nncn1C | 4.68%
COc1cc(CN2CCCC(CO)(Cc3ccccc3)C2)ccc1O (centres unmarked) | 12.4%
CCn1c(SCC(=O)Nc2cc(OC)c(OC)c(OC)c2)nnc1-c1cccs1 | 9.28%
CCOC(=O)c1nn(-c2cccc(OC)c2)c2nc(CC)c(C#N)c(=O)n12 | 8.47%
CCOC(=O)CSc1nc(C2CC2)nc2ccccc12 | 6.23%
CNC(=S)NCCC(c1ccccc1)c1ccccc1 | 8.57%
NS(=O)(=O)c1cccc(NC(=O)CC23CC4CC(CC(Br)(C4)C2)C3)c1 | 9.12%
O=P(c1ccccc1)(c1nc2ccccc2s1)N1CCOCC1 (centres unmarked) | 20.6%
COc1ccc(S(=O)(=O)NC(C)C(=O)NCc2ccccn2)cc1OC (centres unmarked) | 15.4%
CCCCCN(C(=O)NC(=O)Nc1ccc(C)cc1C)S(C)(=O)=O | 5.7%

SMILES | hERG current change (%, negative = inhibition) at 1uM
CCOc1ccc(Nc2c3c(nc4ncnn24)CC(C)CC3)cc1 (centres unmarked) | -0.939%
CCN=c1scc(C)n1/N=C/c1cc(Br)c(O)c(Br)c1 | 10.3%
CC1(OC(=O)C2CCCC2)C(=O)C=C2C=C(c3ccsc3)N(C3CCCCC3)C=C2C1=O (centres unmarked) | 2.05%
CC(C)C/C(=N/O)c1c[nH]c2ccccc12 | 1.54%
CCNC(=O)NC(=O)COC(=O)c1ccccc1SCC(=O)NC(=O)NCC | 7.04%
CCOP(=O)(NC12CC3CC(CC(C3)C1)C2)NC12CC3CC(CC(C3)C1)C2 | 9.83%
Cc1ccccc1OCCN1CCCC1 | 15%
COc1cccc(NC(=O)N2CCC(NC(=O)C3CCCCC3)CC2)c1 | 14.8%
Cc1ccc(-c2nc(N/N=C/c3cccc([N+](=O)[O-])c3)c3ccccc3n2)cc1 | 8.86%
C/C(=N/NC(=O)CNS(=O)(=O)c1ccc(C)cc1)c1cccc([N+](=O)[O-])c1 | 11.2%
C=CCOC(=O)Nc1c(C(=O)OC)[nH]c2ccc(Cl)cc12 | 16.8%
CC1CN(c2ccccc2)CCN1Cc1nc(Cc2ccccc2)no1 (centres unmarked) | 9.72%
CCOC(=O)C1C2C=CC3(CN(c4ccc(Cl)c(F)c4)C(=O)C13)O2 (centres unmarked) | 6.9%
O=C(CCl)Nc1cccc(Oc2cnccn2)c1 | 9.26%
O=S(=O)(NC(=NCc1ccccc1)c1ccccc1)c1ccccc1 | 15.2%
COc1cccc(CN2CCN(S(=O)(=O)c3ccccc3)CC2)c1OC | 8.69%
CCOc1ccc2[nH]c(C(=O)N/N=C/c3cc(OC)c(OC)c(OC)c3)cc2c1 | 16.6%
Cc1cc(Cl)ccc1OCCCC(=O)NCc1cccs1 | 3.76%
CNC(C(=O)c1ccccc1)C(OC)c1ccccc1.[O-][Cl+3]([O-])([O-])O (centres unmarked) | 9.94%
Cc1nn(C)c(C)c1CN(C(=O)CCc1nnc(Cc2c[nH]c3ccccc23)o1)C(C)C | 10.9%
CN(Cc1ccccc1)S(=O)(=O)c1cn(C)cn1 | 2.56%
COc1cc(NC(=O)c2ccccc2)c(OC)cc1NC(=O)Cc1cccs1 | 13.3%
COC(=O)c1cnn2c1C(=O)N(Cc1cccs1)CC2 | 20%

SMILES | hERG current change (%, negative = inhibition) at 1uM
Cc1c(C(=O)N2CCC3(CC2)OCCO3)sc2ncnc(N3CCc4ccccc4C3)c12 | 9.24%
C[C@@H]1C(=O)O[C@H]2C[C@@]34[C@H]5C[C@@H](C(C)(C)C)[C@]36[C@@H](OC(=O)[C@@H]6O)O[C@@]4(C(=O)O5)[C@]21O | 16.5%
Cc1occc1-c1nnc(SCC(=O)Nc2nc(C(C)(C)C)cs2)o1 | 2.65%
COCCn1c(=NC(=O)c2cccs2)sc2cc(NC(C)=O)ccc21 | 0.283%
Cc1noc(C)c1S(=O)(=O)Nc1ccc(C(=O)N2CCCCC2)cc1 | 1.06%
Cc1ccc(NC(=O)OCc2cn(-c3ccc(Cl)cc3)nn2)cc1 | -9.31%
COc1ccc(C(C)NC(=O)c2ccncc2)cc1 (centres unmarked) | 10.8%
COc1ccc(NC(=O)C(NC(=O)c2ccc(C)cc2)c2ccccc2)cc1 (centres unmarked) | 15.3%
Cc1ccccc1NC(=O)c1ccccc1NC(=O)Cc1cccc2ccccc12 | 15.1%
Cc1c(NC(=O)CSc2nnc3sc4ccccc4n23)c(=O)n(-c2ccccc2)n1C | 10.3%
O=C(O)c1ccc(Cl)cc1NC(=O)C1CCCO1 (centres unmarked) | -0.265%
CCOC(=O)C1CCCN(C/C=C/c2ccccc2)C1 (centres unmarked) | 9.81%
CCOC(=O)Cc1csc(NC(=O)c2c(-c3ccccc3)noc2C)n1 | 1.56%
CCOC(=O)c1nnn2c1nc(N1CCN(c3ccccc3)CC1)c1ccccc12 | -0.764%
N#Cc1cc([N+](=O)[O-])ccc1NC(=O)CSc1n[nH]c(=O)n1C1CC1 | 9.63%
C=CCc1c(C)nc2ccc(C(=O)OCC)cc2c1Cl | 13.9%
Cn1nc(C(F)(F)F)c(C#N)c1N1CCN(c2ccccn2)CC1 | 4.67%
COc1ccc2c(c1)N1CCN=C1N2C.Cl | 5.26%
CCOC(=O)c1cc(-c2nnc(-c3cc(OC)c(OC)c(OC)c3)o2)c(C)nc1C | 7.43%
CCCNC(=O)c1c[nH]c2ccc(S(=O)(=O)N(C)c3ccc(OCC)cc3)cc2c1=O | 4.72%
CCNC(=S)NNC(=O)c1cc(-c2ccc(OCC)cc2)nc2ccccc12 | 4.57%
CC(=C/c1ccco1)/C=N/NC(=O)c1ccncc1 | 7.15%
CN(C)C1=NC[C@H](Cc2ccccc2)N1CC1CCCC1 | -0.122%

SMILES | hERG current change (%, negative = inhibition) at 1uM
O=C(CSc1nc(=O)n2ccccc2n1)NCc1ccc2c(c1)OCO2 | -8.25%
CCOc1ccc(CCNC(=O)C2CC(=O)N(CCc3ccc(OC)c(OC)c3)C2)cc1OCC (centres unmarked) | 8.71%
O=C(NCc1ccccn1)C1CCN(S(=O)(=O)c2ccc(Br)cc2)CC1 | 4.9%
C=CCN(c1ccccc1C(=O)NCC(=O)O)S(=O)(=O)c1ccc(C)cc1 | 12.3%
N#CC1=C(N)Oc2[nH]c(=S)[nH]c(=O)c2C12C(=O)Nc1ccccc12 (centres unmarked) | 9.66%
CCOc1ccc(N(CC(=O)NCc2ccccc2Cl)S(=O)(=O)c2c(C)[nH]c(=O)[nH]c2=O)cc1 | 13.4%
N/C(=N\N=C\c1ccc(O)cc1O)N[N+](=O)[O-] | 8.72%
O=C(NCCc1ccccc1)c1ccc([N+](=O)[O-])cc1 | 6.33%
CC[N+]1(C)[C@@H]2CC[C@H]1CC(OC(=O)[C@H]1CCC(C(=O)OC3C[C@H]4CC[C@@H](C3)[N+]4(C)CC)(c3ccccc3)c3ccccc31)C2.[Cl-] (some centres unmarked) | 12.4%
CCc1ccc(C2C(C#N)=C(N)N(N(C)C)C3=C2C(=O)CCC3)s1 (centres unmarked) | -5.8%
O=C(Nc1nccs1)c1ccc(N2C(=O)C3CCCCC3C2=O)cc1 (centres unmarked) | 10.1%
CN(C)/C=C/C(=O)c1ccc(F)cc1 | 4.7%
Cc1cc(-n2cnnn2)cc(C)c1S(=O)(=O)NCCOc1ccccc1 | -5.02%
O=C(NCCc1ccc(Cl)cc1)c1ccc2nc[nH]c2c1 | 6.99%
O=S1(=O)CC(O)C(Nc2ccccc2)C1 (centres unmarked) | 10.2%
COC(=O)c1sccc1NC(=O)c1ccnn1C | 13.1%
O=C(CCCn1cc([N+](=O)[O-])cn1)N1CCCCC1 | 10.1%
CN(C)c1nn(C(=O)Nc2cccc(C(F)(F)F)c2)cc1-c1ccccc1 | 11.7%
CCn1c(SCC(=O)N2CCN(c3ccc(F)cc3)CC2)nc2ccccc2c1=O | -35.4%
COc1ccc2[nH]c(=O)cc(C(=O)O)c2c1 | 6.54%
